{"source": "PubChem BioAssay AID651597", "about": "(National Center for Advancing Translational Sciences (NCATS), 2012)", "note": "Screen size: about 1,100 compounds; about 390 (35%) were called active. The shares of active, inactive and inconclusive entries below differ from those in the screen. Calls come from the whole dose curve; as a rule, active = well fitted inhibition curve with a large enough effect; inconclusive = small, poorly fitted or top-dose-only effect; inactive = flat fitted curve, though single readings scatter. A potency beside an inconclusive call is a rough fit, not a confirmed value. Potency is the fitted concentration of half-maximal effect; tags give direction and shape of the fitted curve."}
{"target": "Luciferin 4-monooxygenase (Photinus pyralis) (UniProt P08659)", "experiment": "qHTS of Nrf2 Activators: Hit Validation in Secondary FLuc Assay; note: nearly all actives have a fitted effect of over 65% in size", "conditions": "firefly luciferase inhibition counter-screen, luminescence; series mostly up to 57.5 µM", "summary_of_the_method": "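Counter-screen on purified firefly luciferase with ATP and D-luciferin at Km concentrations; compounds flagged if they inhibit the enzyme, indicating possible reporter stabilization rather than ARE activation.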"}
{"smiles": "NC(=S)NN=C1CSSC1", "Potency": "inconclusive: 10.7 µM [inhibitor, partial curve]"}
{"smiles": "O=C(NC(=S)Nc1ccccc1F)c1ccc(Br)o1", "Potency": "inconclusive: 3.01 µM [inhibitor, full curve]"}
{"smiles": "Nc1nc(/C=C/c2ccc(F)cc2)nc(-c2ccccc2O)n1", "Potency": "inconclusive: 23.9 µM [inhibitor, partial curve]"}
{"smiles": "CCSc1nc2ccccc2n1C(=O)/C=C/c1ccc(OC)c(OC)c1", "Potency": "inconclusive: 13.5 µM [inhibitor, partial curve]"}
{"smiles": "Clc1nnc(NN=C2CCCC2)c2ccccc12", "Potency": "inconclusive: 13.5 µM [inhibitor, partial curve]"}
{"smiles": "Cc1ccc(O)c(NC(=O)c2cc([N+](=O)[O-])ccc2Cl)c1", "Potency": "inactive"}
{"smiles": "CC(=O)c1cc2c(cc1NC(=O)c1ccco1)OCCO2", "Potency": "inconclusive: 13.5 µM [inhibitor, partial curve]"}
{"smiles": "Clc1cc(-c2ccccc2)nc(-c2ccccc2)n1", "Potency": "inactive"}
{"smiles": "O=C(Nc1ccccc1)N1CCn2c1nc1ccccc12", "Potency": "inconclusive: 16.9 µM [inhibitor, partial curve]"}
{"smiles": "Oc1ccc(NCc2cccc(OCc3ccc(F)cc3)c2)cc1", "Potency": "active: 3.38 µM"}
{"smiles": "CCc1c(C)sc(NC(=O)c2ccco2)c1C#N", "Potency": "active: 12 µM"}
{"smiles": "CC(=O)c1nn(-c2ccccc2)cc1C(=O)c1cccc(Br)c1", "Potency": "inactive"}
{"smiles": "COc1c(Cl)cc(C(=O)NCc2ccco2)cc1Cl", "Potency": "inactive"}
{"smiles": "CCn1c(=O)oc2cc(NC(=O)CCl)ccc21", "Potency": "inactive"}
{"smiles": "CCC(CC)c1nnc(NC(=O)/C=C/c2ccco2)s1", "Potency": "inactive"}
{"smiles": "CN(C)/C=N/C1=C(C#N)C(c2cccs2)c2ccc3ccccc3c2O1", "note": "(stereo not given)", "Potency": "inconclusive: 19 µM [inhibitor, single point]"}
{"smiles": "C/C(=N\\Nc1ccc(F)cc1F)c1ccc(Br)s1", "Potency": "inconclusive: 26.9 µM [inhibitor, single point]"}
{"smiles": "Clc1ccc(/C=C/c2ncc3ccccn23)cc1", "Potency": "active: 1.51 µM"}
{"smiles": "COc1ccc(Cl)cc1-c1nc(-c2ccncc2)no1", "Potency": "inconclusive: 33.8 µM [inhibitor, single point]"}
{"smiles": "COC(=O)c1cc(=O)nc(NN=Cc2ccco2)s1", "Potency": "inconclusive: 23.9 µM [inhibitor, single point]"}
{"smiles": "O=C(CN1CCN(Cc2ccccc2)CC1)N/N=C\\C=C/c1ccco1", "Potency": "inactive"}
{"smiles": "COC(=O)/C=C1/S/C(=N/N=C/c2ccco2)NC1=O", "Potency": "inconclusive: 21.3 µM [inhibitor, partial curve, poor fit]"}
{"smiles": "Cc1ccc2nc(N(CCN(C)C)C(=O)/C=C/c3cccs3)sc2c1", "Potency": "inactive"}
{"smiles": "O=[N+]([O-])c1cccc(N2Cc3ccccc3C2)c1", "Potency": "inconclusive: 12 µM [inhibitor, partial curve]"}
{"smiles": "CCCCn1c(O)c(N=Nc2ccccn2)c2ccccc21", "Potency": "inconclusive: 30.1 µM [inhibitor, single point]"}
{"smiles": "Nc1nc(Nc2ccccc2F)nc(NCc2ccco2)c1[N+](=O)[O-]", "Potency": "inconclusive: 23.9 µM [inhibitor, single point]"}
{"smiles": "O=C(CCN1C(=O)/C(=C\\c2ccccc2)SC1=S)N1CCCCC1", "Potency": "inconclusive: 9.53 µM [inhibitor, partial curve]"}
{"smiles": "COc1ccc(C2NC(=S)NC3=C2CCCC3=C2SCCS2)cc1", "note": "(stereo not given)", "Potency": "inactive"}
{"smiles": "Clc1nc(-c2ccccc2)cc(-c2ccccc2)n1", "Potency": "inconclusive: 16.9 µM [inhibitor, single point]"}
{"smiles": "CC1CN(C(=O)/C=C/c2ccc([N+](=O)[O-])s2)CC(C)O1", "note": "(stereo not given)", "Potency": "inactive"}
{"smiles": "CC(=O)c1cccc(NC(=O)c2cc(Cl)sc2Cl)c1", "Potency": "inconclusive: 16.9 µM [inhibitor, partial curve]"}
{"smiles": "O=C(NC(=S)Nc1cccc2cccnc12)c1cccs1", "Potency": "active: 0.953 µM"}
{"smiles": "O=[N+]([O-])c1cccc(/C=C/c2ccccn2)c1", "Potency": "active: 10.7 µM"}
{"smiles": "O=C(CSc1ccccn1)N/N=C/c1ccccc1[N+](=O)[O-]", "Potency": "inconclusive: 15.1 µM [inhibitor, partial curve]"}
{"smiles": "Clc1ccccc1C=NNc1ccccn1", "Potency": "inconclusive: 0.675 µM [inhibitor, full curve]"}
{"smiles": "CCOC(=O)c1c(NC(=O)/C=C/c2ccc(C)o2)sc(C)c1C", "Potency": "active: 13.5 µM"}
{"smiles": "Cc1nc(/N=C(\\N)NC(=O)c2ccccc2)nc2ccccc12", "Potency": "active: 3.79 µM"}
{"smiles": "Cc1cc(Br)ccc1NC(=O)CNC(=O)Cn1ncc(Cl)c(Cl)c1=O", "Potency": "inactive"}
{"smiles": "COc1cc(/C=C2/NC(=O)N(c3cccc(Cl)c3)C2=O)ccc1O", "Potency": "inconclusive: 15.1 µM [inhibitor, partial curve]"}
{"smiles": "Cc1ccnc(SCC(=O)c2ccc(Br)cc2)c1C#N", "Potency": "active: 6.01 µM"}
{"smiles": "O=C(/C=C/c1ccco1)Nc1ccccc1N1CCCCC1", "Potency": "inconclusive: 19 µM [inhibitor, partial curve]"}
{"smiles": "C/C(=N\\Nc1ccccn1)c1ccc(Br)s1", "Potency": "active: 12 µM"}
{"smiles": "Clc1cccc(Cl)c1/C=N\\Nc1nccs1", "Potency": "inconclusive: 7.57 µM [inhibitor, partial curve]"}
{"smiles": "Cc1noc(C)c1-c1ccc2ncnc(NCC3CCCCN3C)c2c1", "note": "(stereo not given)", "Potency": "inactive"}
{"smiles": "COc1ccc(COc2ccsc2C(=O)Nc2ccc(Cl)c(Cl)c2)cc1", "Potency": "inconclusive: 21.3 µM [inhibitor, single point]"}
{"smiles": "O=C(CSc1ccc(-c2ccco2)nn1)NCc1ccccc1", "Potency": "inconclusive: 13.5 µM [inhibitor, partial curve]"}
{"smiles": "CNc1nc(N)c([N+](=O)[O-])c(Nc2cccc(Cl)c2)n1", "Potency": "inactive"}
{"smiles": "Cc1nn2c3c(cnc2c1-c1ccccc1)C(=O)CC(c1ccco1)C3", "note": "(stereo not given)", "Potency": "inconclusive: 10.7 µM [inhibitor, partial curve]"}
{"smiles": "COc1ccc(NC(=O)CSc2ccc(-c3ccco3)nn2)cc1OC", "Potency": "active: 15.1 µM"}
{"smiles": "COCCn1c(=NC(=O)c2cc(Cl)sc2Cl)sc2cc(S(N)(=O)=O)ccc21", "Potency": "active: 15.1 µM"}
{"smiles": "Cc1nn2c(-c3ccccc3)nnc2c2ccccc12", "Potency": "active: 10.7 µM"}
{"smiles": "O=C(Nc1ccc2c(c1)C(=O)NC2=O)c1ccccc1", "Potency": "inconclusive: 26.9 µM [inhibitor, single point]"}
{"smiles": "O=C(Oc1cccc2c(O)cccc12)c1ccccc1Cl", "Potency": "inconclusive: 19 µM [inhibitor, partial curve]"}
{"smiles": "c1coc(CNc2ncnc3c2oc2ccccc23)c1", "Potency": "inconclusive: 37.9 µM [inhibitor, single point]"}
{"smiles": "S=c1[nH]nc(-c2ccc(Cl)cc2)n1/N=C/C=C/c1ccco1", "Potency": "active: 10.7 µM"}
{"smiles": "CC1(O)c2ccccc2C(=O)N1CCc1ccccc1F", "note": "(stereo not given)", "Potency": "active: 6.75 µM"}
{"smiles": "O=C(/C=C/c1cccc([N+](=O)[O-])c1)n1cnc2ccccc21", "Potency": "inconclusive: 0.0536 µM [inhibitor, partial curve, poor fit]"}
{"smiles": "O=C(/C=C/c1ccccc1)Nc1ncn[nH]1", "Potency": "active: 10.7 µM"}
{"smiles": "CCn1c(=N)n(CC(=O)c2cccc([N+](=O)[O-])c2)c2ccccc21", "Potency": "inconclusive: 3.38 µM [inhibitor, full curve]"}
{"smiles": "Cc1ccc(C)c(-c2nnc(NC(=O)c3ccc([N+](=O)[O-])o3)o2)c1", "Potency": "inactive"}
{"smiles": "N#Cc1c(NC(=O)c2ccc([N+](=O)[O-])o2)sc2c1CCC2", "Potency": "active: 1.69 µM"}
{"smiles": "O=c1c(Cl)c(N/N=C/c2ccc(Br)cc2)cnn1-c1ccccc1", "Potency": "inconclusive: 16.9 µM [inhibitor, partial curve]"}
{"smiles": "N#C/C(=C\\c1ccc([N+](=O)[O-])o1)c1nc2ccccc2[nH]1", "Potency": "inconclusive: 10.7 µM [inhibitor, partial curve]"}
{"smiles": "CC(NC(=O)/C=C/c1ccco1)c1nc2ccccc2n1Cc1c(Cl)cccc1Cl", "note": "(stereo not given)", "Potency": "inconclusive: 23.9 µM [inhibitor, single point]"}
{"smiles": "Cc1cc(=O)oc2c(C(=O)/C=C\\c3cccs3)c(O)ccc12", "Potency": "inconclusive: 16.9 µM [inhibitor, partial curve]"}
{"smiles": "COc1ccc(C2CC(c3cccs3)=Nc3ccccc3S2)cc1OC", "note": "(stereo not given)", "Potency": "inconclusive: 21.3 µM [inhibitor, single point]"}
{"smiles": "Cc1cc(SCC(=O)N/N=C/c2ccco2)nc2ccccc12", "Potency": "inactive"}
{"smiles": "N#C/C(=C\\c1c(Oc2ccc(Cl)cc2)nc2ccccn2c1=O)C(=O)NC1CCS(=O)(=O)C1", "note": "(stereo not given)", "Potency": "inactive"}
{"smiles": "Cc1nnc(NC(=O)c2nc(S(=O)(=O)Cc3ccccc3)ncc2Cl)s1", "Potency": "inconclusive: 37.9 µM [inhibitor, single point]"}
{"smiles": "O=C(/C=C/c1ccco1)Nc1ccc2nn(-c3ccccc3)nc2c1", "Potency": "active: 9.53 µM"}
{"smiles": "CCOC(=O)c1ccccc1N/C=C/C(=O)c1cccs1", "Potency": "inconclusive: 9.53 µM [inhibitor, partial curve]"}
{"smiles": "CCSc1ncc(Cl)c(C(=O)Nc2ccccc2)n1", "Potency": "inconclusive: 37.9 µM [inhibitor, single point]"}
{"smiles": "Cc1ncc(N=Nc2ccccc2)c(-c2ccccc2)n1", "Potency": "inactive"}
{"smiles": "COc1ccccc1NC(=O)c1cnc(SCC(=O)NCCc2ccccc2)n(C)c1=O", "Potency": "inconclusive: 1.69 µM [inhibitor, full curve]"}
{"smiles": "COc1ccc(NC(=O)c2ccc([N+](=O)[O-])s2)c([N+](=O)[O-])c1", "Potency": "inactive"}
{"smiles": "O=C1c2cccc3cccc(c23)C(=O)N1CCCN(C(=O)c1cccs1)c1cccc(F)c1", "Potency": "inactive"}
{"smiles": "Cc1ccc(N=C2NC(=O)/C(=C/C=C/c3ccco3)S2)cc1", "Potency": "active: 8.49 µM"}
{"smiles": "N=c1oc2ccccc2cc1-c1nc(-c2ccccc2)cs1", "Potency": "active: 2.69 µM"}
{"smiles": "Cn1cc([N+](=O)[O-])c(C(=O)Nc2ccc(-c3nc4ccccc4o3)cc2)n1", "Potency": "active: 8.49 µM"}
{"smiles": "Cc1ccccc1NC(=O)/C(C#N)=C/c1ccsc1", "Potency": "inconclusive: 6.75 µM [inhibitor, full curve]"}
